Results reported in publication PMC4336329 (PLoS ONE, 2015).
Hit rate of the full screen: of about 310,000 compounds, about 2,200 (0.71%) showed an effect of 50% or more. The effect is printed as a negative number. The list shows a part of the results.

Target: human ether-à-go-go-related gene (hERG) potassium channel (human, UniProt Q12809)
Test: primary screen, population patch clamp on CHO cells stably expressing hERG

human ether-à-go-go-related gene (hERG) potassium channel, sequence (Q12809 whole entry, looked up): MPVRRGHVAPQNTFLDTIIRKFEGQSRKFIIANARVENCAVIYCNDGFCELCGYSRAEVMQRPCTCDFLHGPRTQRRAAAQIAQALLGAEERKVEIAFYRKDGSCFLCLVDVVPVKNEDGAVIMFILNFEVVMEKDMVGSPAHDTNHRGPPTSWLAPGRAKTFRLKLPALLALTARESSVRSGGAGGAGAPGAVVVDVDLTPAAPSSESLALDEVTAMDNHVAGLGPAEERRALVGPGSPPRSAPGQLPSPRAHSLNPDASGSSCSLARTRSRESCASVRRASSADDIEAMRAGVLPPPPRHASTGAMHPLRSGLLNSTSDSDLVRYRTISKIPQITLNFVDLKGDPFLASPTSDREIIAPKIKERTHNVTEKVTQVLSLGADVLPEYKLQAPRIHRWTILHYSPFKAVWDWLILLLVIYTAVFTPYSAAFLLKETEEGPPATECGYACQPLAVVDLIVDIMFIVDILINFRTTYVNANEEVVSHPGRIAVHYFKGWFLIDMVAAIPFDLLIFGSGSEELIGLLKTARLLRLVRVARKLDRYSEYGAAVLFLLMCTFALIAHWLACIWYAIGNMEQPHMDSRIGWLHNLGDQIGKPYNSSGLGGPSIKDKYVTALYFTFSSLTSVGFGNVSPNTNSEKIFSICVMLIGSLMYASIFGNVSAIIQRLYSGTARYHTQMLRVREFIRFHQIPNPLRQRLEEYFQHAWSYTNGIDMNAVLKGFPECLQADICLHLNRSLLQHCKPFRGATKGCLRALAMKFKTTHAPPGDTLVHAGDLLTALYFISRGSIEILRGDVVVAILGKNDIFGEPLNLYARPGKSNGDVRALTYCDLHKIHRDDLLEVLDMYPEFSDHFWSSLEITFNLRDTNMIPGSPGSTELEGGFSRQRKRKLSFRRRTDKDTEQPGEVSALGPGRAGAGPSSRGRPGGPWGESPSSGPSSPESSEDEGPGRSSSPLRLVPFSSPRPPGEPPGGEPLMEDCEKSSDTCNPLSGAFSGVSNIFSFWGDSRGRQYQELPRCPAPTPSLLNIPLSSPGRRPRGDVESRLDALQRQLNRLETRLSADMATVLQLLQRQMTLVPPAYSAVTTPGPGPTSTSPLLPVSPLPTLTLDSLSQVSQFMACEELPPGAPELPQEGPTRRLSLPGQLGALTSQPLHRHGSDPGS

Structure (SMILES) | hERG current change (%, negative = inhibition) at 1uM
COc1ccc(Cl)cc1C(=O)OCC(=O)N(CC(C)C)c1c(N)n(Cc2ccccc2)c(=O)[nH]c1=O | 9.47%
COc1ccc(CN(CCN(C)C)Cc2ccccc2)c(OC)c1.O=C(O)C(=O)O | -3.15%
CCOC(=O)C1C(C(=O)NN)C1C(=O)Nc1ccccc1 (stereo not drawn) | 26%
Fc1cc(F)c(NC(=S)N2CCOCC2)c(F)c1 | 4.98%
CCCCc1nc2n[nH]c(N)c2c2c1CCC2 | -9.01%
CC(=O)c1ccc(-n2nncc2C(C)(C)C)cc1 | 7.36%
C/C(CC1CC(C)(C)OC1=O)=N\NC(N)=S (stereo not drawn) | 10%
COc1cc(/C=C/C(=O)OCC(=O)N2CCN(S(=O)(=O)c3ccc(C)cc3C)CC2)ccc1O | 15.6%
C/C(=N\NC(N)=S)c1cccnc1 | 2.3%
Cc1ccc2[nH]cc(C(=O)NCc3cccs3)c(=O)c2c1 | -1.23%
NC(=O)C1CCN(C(=O)c2ccc(F)c(S(=O)(=O)N3CCOCC3)c2)CC1 | 7.9%
O=C(Cc1cccc2ccccc12)Nc1c(F)cccc1F | 10.9%
C=CCN(c1ccccc1)S(=O)(=O)c1cccc(C(=O)NCC(c2cccs2)N2CCOCC2)c1 (stereo not drawn) | 7.99%
COc1cc(C(=O)NCc2nnc(SCC(=O)Nc3cccc(C)c3)o2)cc(OC)c1OC | -2.29%
COCCNCC(=O)NCC12CC3CC(CC(C3)C1)C2.Cl | 12.7%
COc1ccc(CNC(=O)CCS(=O)(=O)c2cc3c(cc2Cl)NC(=O)CO3)cc1 | 7.95%
COCCOC(=O)c1c(C)oc2ccc(NS(=O)(=O)c3cccs3)cc12 | 4.57%
Cn1c(-c2cccc([N+](=O)[O-])c2)cnc1NCc1cccc(F)c1.O=C(O)C(=O)O | -20.7%
C/C(=N/NC(=O)c1ccc2c(c1)OCO2)c1ccc(Br)s1 | 5.81%
Cc1cc(C)nc(N2CCC(C(=O)NCc3cccs3)CC2)n1 | 4.72%
O=C(c1ccc(SCc2cccc(Br)c2)c([N+](=O)[O-])c1)N1CCN(c2ccccn2)CC1 | -2.45%
Cc1ccc(-c2cnc(C3CC3)o2)cc1S(=O)(=O)Nc1ccccc1 | 8.9%
CCCOP(=O)(c1ccc(N(C)C)cc1)C(O)c1cc(OC)c(OC)c(OC)c1 (stereo not drawn) | 7.16%

Structure (SMILES) | hERG current change (%, negative = inhibition) at 1uM
O=S(=O)(CCn1cccc1)CCn1cccc1 | 17.3%
COc1cccc(CN2CC(C(=O)N(C)CCc3ccccc3)CCC2=O)c1 (stereo not drawn) | 9.44%
CCN(CC)C(=O)Cn1cnc2sc(C(=O)N3CCN(c4ccc(F)cc4)CC3)c(C)c2c1=O | -6.94%
COCCn1c(SC2CCCCC2=O)nnc1-c1ccncc1 (stereo not drawn) | 14.8%
CCCOc1ccc(N2C(=O)CC(N3CCCC(C(=O)N4CCCC4)C3)C2=O)cc1 (stereo not drawn) | 1.72%
COc1ccc(S(=O)(=O)N2CCOC2CNC(=O)C(=O)NCc2ccncc2)cc1OC (stereo not drawn) | 4.24%
CC(C)(C)c1ccc(C2CC2C(=O)N/N=C\c2cc3ccccc3nc2Cl)cc1 (stereo not drawn) | -5.85%
CC(C)N=C(NC#N)SCc1ccc(F)cc1 | 10.6%
Cc1c(C)c2ccc(OCC(=O)NC3CCN(Cc4ccccc4)CC3)c(C)c2oc1=O | -5.62%
OCc1ccccc1OCCCOc1cccc2cccnc12 | 9.1%
CC1(C(=O)NCc2cccnc2)CCC(=O)N1CCc1ccccc1 (stereo not drawn) | 3.82%
COC(=O)c1c(NC(=O)CN2CCC3(O)CCCCC3C2c2ccc(OC)cc2OC)sc(C)c1C (stereo not drawn) | 10.2%
COc1ccc(CCN2C(=O)CC(C(N)=O)SC2=Nc2ccccc2)cc1 (stereo not drawn) | 5.42%
CCOC(=O)N1CCN(C(=O)c2oc3ccc(S(=O)(=O)N4CCOCC4)cc3c2C)CC1 | 3.2%
O=C(/C=C/c1ccc([N+](=O)[O-])s1)N1CCCC1 | -14.9%
CCn1c2ccccc2c2nnc(SCC(=O)NC3CCS(=O)(=O)C3)nc21 (stereo not drawn) | 8.68%
CNC(=O)c1[nH]cnc1C(=O)Nc1ccccc1 | 7.15%
CCc1ccc2oc(-c3cc(N)cc(C)c3O)nc2c1 | 12.5%
O=C(c1ccc(Br)cc1)N1CCCC(c2nc(-c3cccs3)no2)C1 (stereo not drawn) | 14.9%
Cc1cc(C(=O)O)cc(S(=O)(=O)Nc2ccccc2C(=O)NC(C)c2ccccc2)c1C (stereo not drawn) | 14.6%
CC(C)CN1CCC(C(=O)N2CCN(c3ccccc3F)CC2)CC1 | -8.1%
CN(C)/C=N/C(=S)Nc1ccc(F)cc1 | 10.4%
